Laboratory results: the supplement of paper PMC3334620
Whole data set: some 33,000 sequences, median “E-score (-0.5 to 0.5)” near -0.011, cut for the highest 2% near 0.28. The list shows a part of the results.

The sequences below were run against T1, Gcr1 (UniProt P07261) (assay: PBM E-score (8-mer binding enrichment) (E-score (-0.5 to 0.5)); higher = stronger / more preferred TF binding; most listed sequences are background and not binding sites). Conditions: protein concentration: 100 nM; construct: GST-full length.
T1 sequence: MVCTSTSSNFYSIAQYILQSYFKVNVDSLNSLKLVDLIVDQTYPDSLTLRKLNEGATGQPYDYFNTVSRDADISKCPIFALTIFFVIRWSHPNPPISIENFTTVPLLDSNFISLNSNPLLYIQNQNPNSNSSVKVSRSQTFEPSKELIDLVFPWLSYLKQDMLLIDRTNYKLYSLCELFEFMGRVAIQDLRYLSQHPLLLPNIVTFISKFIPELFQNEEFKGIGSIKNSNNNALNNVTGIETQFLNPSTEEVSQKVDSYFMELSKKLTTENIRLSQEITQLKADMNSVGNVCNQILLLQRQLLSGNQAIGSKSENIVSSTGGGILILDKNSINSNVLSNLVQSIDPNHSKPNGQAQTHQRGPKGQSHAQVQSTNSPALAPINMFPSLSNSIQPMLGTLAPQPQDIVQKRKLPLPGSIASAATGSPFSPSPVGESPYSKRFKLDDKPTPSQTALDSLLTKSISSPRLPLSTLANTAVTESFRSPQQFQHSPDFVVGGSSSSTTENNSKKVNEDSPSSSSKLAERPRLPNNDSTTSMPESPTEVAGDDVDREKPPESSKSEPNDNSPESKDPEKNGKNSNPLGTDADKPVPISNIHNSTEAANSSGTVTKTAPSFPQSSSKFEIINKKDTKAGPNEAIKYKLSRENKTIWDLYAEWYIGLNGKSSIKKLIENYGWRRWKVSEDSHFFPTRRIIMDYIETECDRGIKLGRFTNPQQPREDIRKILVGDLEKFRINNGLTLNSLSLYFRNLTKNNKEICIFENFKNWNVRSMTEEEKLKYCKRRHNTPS
Procedure, shortened: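 E-scores (a modified Wilcoxon-Mann-Whitney statistic) were assigned by the Universal PBM Analysis Suite to every ungapped eight-base word pooled with its reverse complement. The input came from universal all-10-mer Agilent arrays made double-stranded by primer extension and probed with GST-tagged yeast transcription factors at about 100-200 nM. Fluorescent anti-GST detected bound protein, and masliner normalised the scans.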

In order of falling “PBM E-score” value:
1. GGGTTCCA  0.419
2. TCTTCTAA  0.329
3. GCTTCGTA  0.329
4. ATAGGAAC  0.319
5. GAGGCGCC  0.302
6. CAAGATGC  0.277
7. AAAAAGGG  0.264
8. ACGCCGCT  0.262
9. ACAAAGAA  0.243
10. TATGCGGA  0.238
11. ACGGATTC  0.237
12. ATCTAGAA  0.234
13. AGTTGCTA  0.226
14. CTCAAGAA  0.224
15. CCTAATAA  0.218
16. ACTGGGTG  0.213
17. GCCCCTAA  0.199
18. ATTTAGGG  0.196
19. CCCCAAAA  0.188
20. ACCCGCAG  0.18
21. CTTCGTAA  0.174
22. ATCGGTAA  0.168
23. GTCTCCTA  0.155
24. AGAACCAT  0.154
25. AAGTCGTC  0.145
26. TGCTAAAA  0.144
27. ATTAACTG  0.143
28. CAATTCTG  0.135
29. CGCATTAG  0.132
30. AGTCACTA  0.132
31. AGAATAGA  0.129
32. ACGCATTA  0.126
33. GCATTAAA  0.126
34. CACCCCAC  0.126
35. ACAAAAAT  0.125
36. AAGCCGCC  0.125
37. GAATAGAA  0.124
38. CGCTGGGA  0.114
39. TAATTTAA  0.113
40. CTGCATTC  0.11
41. AAATATCG  0.109
42. CAAGTATC  0.109
43. AGGGAAAA  0.108
44. CCTTCTGA  0.107
45. AAGGTAAC  0.106
46. AGTGTTGG  0.103
47. TCTGTAAA  0.103
48. AATGGTCA  0.0991
49. CACCTGTA  0.0936
50. ACGGGCGC  0.092
51. TAGGAAGA  0.0862
52. GATCTGCA  0.0851
53. AACATATT  0.0829
54. ATGATAAA  0.0745
55. AACTGGGA  0.0745
56. CGGATGTC  0.0736
57. GATACGCC  0.0723
58. ATACAAAG  0.0628
59. CGTGCGAG  0.0623
60. ATATGCTG  0.0614
61. CCTACTTA  0.0587
62. ACCATCCT  0.0586
63. ACATCAGG  0.0569
64. ACGCATGG  0.0563
65. ATCTACAG  0.0523
66. CAAACTGC  0.0479
67. AATCAGCT  0.0477
68. AACGTTCT  0.0468
69. ACTCGATG  0.0464
70. AAAACCCA  0.0376
71. CTTCTCTA  0.0371
72. ACTAAGGG  0.035
73. ACCAGCAT  0.0308
74. ACGAGGTG  0.0302
75. ACATCGCA  0.0289
76. ATCGGTGC  0.0266
77. CCTCAGGA  0.0261
78. GCTGAATA  0.0253
79. CGTTGTTA  0.0232
80. ACGTACGG  0.0221
81. ACAGACAA  0.0204
82. GATAGCGC  0.0196
83. CATGGAAC  0.0196
84. AACAGCGT  0.0182
85. CAACACAC  0.016
86. CTCTACGC  0.014
87. ACTACTCG  0.0127
88. ATATCAAA  0.0126
89. CACCGTGA  0.0121
90. CTAGGGTC  0.00957
91. GCTACCCA  0.00454
92. TAGATCTA  0.0037
93. CAGTGTGG  0.00248
94. CATAGTCC  0.00228
95. AAGCGTAT  0.00221
96. AGGCATAT  0.00107
97. CACTATCC  0.00039
98. AATACCTC  3e-05
99. TGGGCACA  -0.0019
100. ATGATCAC  -0.00225
101. ATCTTAGC  -0.00256
102. CGCGGGCA  -0.00343
103. ATGGGCAA  -0.0035
104. GGAGGCAC  -0.00433
105. CCACTGCC  -0.00453
106. ACGCAAGC  -0.00602
107. ATTGTTTG  -0.00621
108. CTTCAAGC  -0.00738
109. ATAACGCG  -0.00839
110. GTATTTCA  -0.00906
111. AGCACGTA  -0.00967
112. GCACACGA  -0.00983
113. ACGATTGA  -0.0106
114. AAAACAAG  -0.012
115. CCGATGGC  -0.0124
116. AATCATTC  -0.0135
117. CGAATAAA  -0.0149
118. CATTTGCG  -0.0151
119. ACGGAAGT  -0.0172
120. GATTGCTA  -0.0182
121. ACTGCAGG  -0.0183
122. GGATGAAA  -0.0204
123. GGTATACA  -0.0213
124. CGAGGGCA  -0.024
125. CATCTAGG  -0.0251
126. AACCCTGT  -0.0296
127. TACCCCTA  -0.0302
128. CCACCCGA  -0.0311
129. ATAAAATC  -0.034
130. GTGCTATA  -0.0343
131. GCAATACA  -0.0369
132. ATATACGG  -0.0387
133. AGTGTAGA  -0.0425
134. GTGTGAAC  -0.0443
135. TCAGTTCA  -0.0489
136. CGAGTACG  -0.0512
137. CGAGGCAA  -0.0515
138. AACACCAT  -0.058
139. CAGACACA  -0.0598
140. AGCCGTTC  -0.0625
141. ACACAACG  -0.063
142. CGCACGCA  -0.0673
143. AACGCAAA  -0.0691
144. CCGTCACC  -0.0694
145. AAAGTCAG  -0.0699
146. AGGATACT  -0.0705
147. TGCTAGAA  -0.0709
148. GATATCGC  -0.071
149. AAAAAAGC  -0.0745
150. AATTAACT  -0.0748
151. AGCAGTTA  -0.076
152. ACTTGCAA  -0.0778
153. AAACCTAC  -0.0804
154. AAGCGCTA  -0.0831
155. ATCGCTAA  -0.0832
156. ACTTACCG  -0.0842
157. GGTCATTA  -0.094
158. ACCAAGGT  -0.1
159. AAGGCAGT  -0.102
160. CGCGACCC  -0.104
161. CATCAGGC  -0.105
162. ATACCTTG  -0.108
163. AGAGTACC  -0.108
164. CTTACGAC  -0.111
165. GATAATGC  -0.114
166. GAATAAGC  -0.114
167. CAACTACG  -0.117
168. TAGATCGA  -0.12
169. ACTCTTTC  -0.12
170. CGTGACGC  -0.123
171. TCACTCGA  -0.127
172. GATCGGAA  -0.128
173. CAGAGTTA  -0.129
174. CAGGGACA  -0.132
175. TCGACAGA  -0.135
176. GAGCTCAC  -0.135
177. CTTCTAGC  -0.137
178. CAATGTGA  -0.137
179. GGATACGA  -0.138
180. GACAGAGC  -0.149
181. CTGCTAAG  -0.151
182. AGAAGTGA  -0.153
183. AGAGGGTC  -0.153
184. AAGCCGTA  -0.153
185. CACGGGCG  -0.156
186. ACGCGTAC  -0.156
187. CCGAAGGC  -0.158
188. ATGCCATA  -0.161
189. GATCGGCA  -0.162
190. CTGAGGCC  -0.167
191. ATAAGCCC  -0.17
192. GCTCGCAA  -0.174
193. AGGCACAG  -0.175
194. AGACGGGC  -0.18
195. AGACCGAA  -0.18
196. CGGCGTAC  -0.181
197. GCTGGCCA  -0.182
198. CGCAAGCG  -0.182
199. CGCAGGGA  -0.185
200. CCTCGCCG  -0.188
201. AGCTCGGA  -0.196
202. GGTCGGAC  -0.206
203. CAGCCTAC  -0.209
204. GGGAGAAC  -0.213
205. CAGGCCTG  -0.217
206. ACTAGACC  -0.226
207. CAAACCCC  -0.227
208. AACTCGCC  -0.238
209. GTGGGTCA  -0.239
210. AAACAGAG  -0.244
211. AGAGGGCT  -0.248
212. GAGCCCTC  -0.25
213. CCGGCCCG  -0.26
214. AGCCCTTG  -0.268
215. AGCCTTGA  -0.273
216. AAGTCTCT  -0.294
217. AAGGCATA  -0.307
218. CGACCGTA  -0.309
219. AGATGGCC  -0.357
